From paper PMC5602671, “Role of the P2 residue of human alpha 1-antitrypsin in determining target protease specificity” (PLoS ONE, 2017)

T1: porcine pancreatic elastase (porcine, UniProt P00772 27-266)
T1 construct: porcine pancreatic elastase, active enzyme as bought; also called PPE; source: bought: Merck
T1 sequence (looked up): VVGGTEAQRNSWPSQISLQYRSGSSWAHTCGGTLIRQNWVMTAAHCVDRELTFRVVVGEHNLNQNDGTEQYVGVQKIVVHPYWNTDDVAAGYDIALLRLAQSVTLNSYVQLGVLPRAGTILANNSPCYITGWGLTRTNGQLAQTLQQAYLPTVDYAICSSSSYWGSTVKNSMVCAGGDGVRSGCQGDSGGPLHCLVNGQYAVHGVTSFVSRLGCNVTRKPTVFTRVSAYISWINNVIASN

B1: human alpha 1-antitrypsin P357A (natural protein)
chain: not shown
notes: Secreted from CHO-K1 cells; source: CHO-K1, transiently transfected, secreted; purified (Q-Sepharose FF, A1AT Select)
B2: human alpha 1-antitrypsin P357K (natural protein)
chain: not shown
notes: as for B1
B3: human alpha 1-antitrypsin P357L (natural protein)
chain: not shown
notes: as for B1
B4: human alpha 1-antitrypsin P357N (natural protein)
chain: not shown
notes: as for B1
B5: human alpha 1-antitrypsin P357S (natural protein)
chain: not shown
notes: as for B1
B6: human alpha 1-antitrypsin P357W (natural protein)
chain: not shown
notes: as for B1

Molecular target: T1, porcine pancreatic elastase
Assay: SDS-resistant complex formation on SDS-PAGE; A1AT mixed with PPE at molar ratios 1/4, 1/2, 1/1, 2/1 and 4/1, 10 min at 25°C, 20 mM Tris·HCl, 5 mM CaCl2, 0.01% Tween 80, pH 8.0; heated in reducing SDS buffer, 10% gel, Coomassie, densitometry (percent given for the 2:1 ratio)
Conditions: both partners purified

Compared with B1, B2 is lower in “percent of A1AT in complex with PPE (2:1 molar ratio)” value (shortened to “percent of A1AT … (2:1 molar ratio)”): 54% for the first, 44% for the second.

Going from B3 to B4, the “percent of A1AT … (2:1 molar ratio)” value falls from 21% to 9%.

First: B5
Second: B6
The “percent of A1AT … (2:1 molar ratio)” value of the first is higher: 35% for the first, 17% for the second.
